# Data: the supplement of paper PMC12645437, “Orthogonal IMiD-Degron Pairs Induce Selective Protein Degradation in Cells” (ACS Chemical Biology, 2025)
# Some of the results follow.
# B1: Q9UKT9 (peptide)
# chain: FMCPVCGAQFTQKGNLLRHIKL
# B2: Q9UKT9 (peptide)
# chain: LQCNQCGFNCTQKGNLLRHIKL
# B3: Q9UKT9 (peptide)
# chain: FNCSVCGHEFTQKGNLLRHIKL
# B4: Q9UKT9 (peptide)
# chain: LYCEICGFWCTQKGNLLRHIKL
# B5: Q9UKT9 (peptide)
# chain: FICDQCGADFTQKGNLLRHIKL
# B6: Q9UKT9 (peptide)
# chain: FRCDQCGADFTQKGNLLRHIKL
# B7: Q9UKT9 (peptide)
# chain: FSCEVCGASFTQKGNLLRHIKL
# B8: Q9UKT9 (peptide)
# chain: LECNQCGFACTQKGNLLRHIKL
# B9: Q9UKT9 (peptide)
# chain: LECNQCGFPCTQKGNLLRHIKL
# B10: Q9UKT9 (peptide)
# chain: FRCPICGRSFTQKGNLLRHIKL
# B11: Q9UKT9 (peptide)
# chain: FFCDICGASFTQKGNLLRHIKL
# B12: Q9UKT9 (peptide)
# chain: FCCDICGADFTQKGNLLRHIKL
# B13: Q9UKT9 (peptide)
# chain: FTCNQCGRAFTQKGNLLRHIKL
# B14: Q9UKT9 (peptide)
# chain: FDCNQCGHSFTQKGNLLRHIKL
# B15: Q9UKT9 (peptide)
# chain: FLCDVCGASFTQKGNLLRHIKL
# B16: Q9UKT9 (peptide)
# chain: FTCEICGRLFTQKGNLLRHIKL
# B17: Q9UKT9 (peptide)
# chain: FFCNQCGRLFTQKGNLLRHIKL
# B18: Q9UKT9 (peptide)
# chain: FICEICGAQFTQKGNLLRHIKL
# B19: Q9UKT9 (peptide)
# chain: FYCPVCGAKFTQKGNLLRHIKL
# B20: Q9UKT9 (peptide)
# chain: FVCNQCGAIFTQKGNLLRHIKL
# B21: Q9UKT9 (peptide)
# chain: FECSVCGHWFTQKGNLLRHIKL
# B22: Q9UKT9 (peptide)
# chain: FKCEVCGANFTQKGNLLRHIKL
# B23: Q9UKT9 (peptide)
# chain: FLCNQCGRMFTQKGNLLRHIKL
# B24: Q9UKT9 (peptide)
# chain: FHCNQCGRFFTQKGNLLRHIKL
# B25: Q9UKT9 (peptide)
# chain: FECEICGANFTQKGNLLRHIKL
# B26: Q9UKT9 (peptide)
# chain: FLCPICGAPFTQKGNLLRHIKL
# B27: Q9UKT9 (peptide)
# chain: FFCNQCGAHFTQKGNLLRHIKL
# B28: Q9UKT9 (peptide)
# chain: LSCNQCGFVCTQKGNLLRHIKL
# B29: Q9UKT9 (peptide)
# chain: FHCSVCGHYFTQKGNLLRHIKL
# B30: Q9UKT9 (peptide)
# chain: FMCPICGARFTQKGNLLRHIKL
# B31: Q9UKT9 (peptide)
# chain: FDCNVCGALFTQKGNLLRHIKL
# B32: Q9UKT9 (peptide)
# chain: LQCPICGFNCTQKGNLLRHIKL
# B33: Q9UKT9 (peptide)
# chain: LLCPICGFPCTQKGNLLRHIKL
# B34: Q9UKT9 (peptide)
# chain: FKCPQCGAYFTQKGNLLRHIKL
# B35: Q9UKT9 (peptide)
# chain: LDCPICGFQCTQKGNLLRHIKL
# B36: Q9UKT9 (peptide)
# chain: LVCNQCGFKCTQKGNLLRHIKL
# B37: Q9UKT9 (peptide)
# chain: FRCEICGHLFTQKGNLLRHIKL
# B38: Q9UKT9 (peptide)
# chain: FSCNICGAIFTQKGNLLRHIKL
# B39: Q9UKT9 (peptide)
# chain: LYCPICGFNCTQKGNLLRHIKL
# B40: Q9UKT9 (peptide)
# chain: FMCNVCGAQFTQKGNLLRHIKL
# B41: Q9UKT9 (peptide)
# chain: FCCEICGHEFTQKGNLLRHIKL
# B42: Q9UKT9 (peptide)
# chain: FACNICGAWFTQKGNLLRHIKL
# B43: Q9UKT9 (peptide)
# chain: LGCPICGFVCTQKGNLLRHIKL
# B44: Q9UKT9 (peptide)
# chain: FTCNQCGRLFTQKGNLLRHIKL
# B45: Q9UKT9 (peptide)
# chain: LFCPICGFMCTQKGNLLRHIKL
# B46: Q9UKT9 (peptide)
# chain: FICNICGAGFTQKGNLLRHIKL
# B47: Q9UKT9 (peptide)
# chain: FACNVCGAGFTQKGNLLRHIKL
# B48: Q9UKT9 (peptide)
# chain: FKCDICGAAFTQKGNLLRHIKL
# B49: Q9UKT9 (peptide)
# chain: FQCEQCGARFTQKGNLLRHIKL
# B50: Q9UKT9 (peptide)
# chain: LNCPICGFACTQKGNLLRHIKL
# Target: no compound (DMSO)
# Assay: log2 fold change of degron read counts, EGFP-low vs EGFP+ sorted cells; higher = lower degron-EGFP level without compound (poor expression or instability)
# Conditions: compound: DMSO control; 18 h
# 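Note: jurkat cells carrying a lentiviral library of mutant zinc finger degrons fused to EGFP plus mCherry, mCherry+ cells FACS sorted, degron abundance counted by next-generation sequencing.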
row,Sequence,log2 fold change of degron read counts
1,B1,-0.924
2,B2,-0.0968
3,B3,-1.68
4,B4,0.8
5,B5,-2.66
6,B6,-1.89
7,B7,-2.03
8,B8,-0.633
9,B9,-0.0422
10,B10,-0.435
11,B11,-1.55
12,B12,-0.873
13,B13,-0.647
14,B14,-0.21
15,B15,-1.55
16,B16,-1.32
17,B17,1.3
18,B18,-1.71
19,B19,-0.689
20,B20,0.0851
21,B21,0.35
22,B22,-0.504
23,B23,0.285
24,B24,0.837
25,B25,-0.61

row,Sequence,log2 fold change of degron read counts
1,B26,0.404
2,B27,0.177
3,B28,0.095
4,B29,0.574
5,B30,-0.458
6,B31,0.159
7,B32,0.747
8,B33,1.28
9,B34,0.349
10,B35,0.519
11,B36,0.00903
12,B37,-0.958
13,B38,0.194
14,B39,1.08
15,B40,-0.979
16,B41,-2.82
17,B42,0.615
18,B43,1.32
19,B44,0.0312
20,B45,1.48
21,B46,-0.313
22,B47,-0.923
23,B48,-2.39
24,B49,-1.93
25,B50,0.806
